# According to the supplement of paper PMC11417369:
# This is one part of the list.
# Tested on: PfHDP1 homeodomain (GST-tagged)
# Assay: gcPBM binding intensity (ln(normalized median fluorescence intensity)); higher = stronger DNA binding
# Method in brief: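 Binding intensity values are the highest Masliner-normalised natural-log median intensity among replicate spots of either probe orientation. The binding step lasted 1 h in 1× PBS with 1% milk, 0.2 mg/ml BSA, 0.5% salmon testes DNA and 0.03% Triton X-100, using GST-tagged P. falciparum DNA-binding domains expressed in E. coli on an Agilent 4 × 180k array of primer-extended double-stranded 36-bp intergenic genomic probes plus negative controls. Alexa488 anti-GST antibody and a 488 nm scan detected bound protein.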
row,Sequence,gcPBM binding intensity (ln)
1,ATATATCAACTCATATTATTTTCTTTTATTATTTAT [CACACA_negctrl_site276],6.47
2,GTATACTTAACATTCACACATATATATATATATAAA [CACACA_site4596],6.79
3,AATTATTTACCTTCTTTGAAAGAACAAATGATACAA [CACACA_negctrl_site1315],6.35
4,ATATATATATATATATGTACTTATAATTCTTCAATT [XGTACX_site5627],9.44
5,TTTATATTTCTCTTTAGTACATATTATATTCTTTTA [XGTACX_site1618],6.48
6,AATGAAAATAAATTAACACACAATTTTAATATTGTT [CACACA_site1306],6
7,ATTTATCTATAATATACACACATATAACAGACATAT [CACACA_site6469],6.56
8,CTTTCGGTTGGAGAGGTGCGCTTCTCCTTTATAATA,6.43
9,TGATAGCTAGCTATATGTACATATATATATATATAT [XGTACX_site393],9.44
10,AAACATCATAAATATACACACATATATATATATATA [CACACA_site620],9.37
11,TACACAAAATTTAAATGTACATTAAATATATGATGT [XGTACX_site2140],6.37
12,CGAAACCATATGTACACACACATATATAAATATGTA [CACACA_site7082],6.68
13,AAAACGTATCACAAAAGTACAGATAGTTATAATATA [XGTACX_site185],6.33
14,TCTTAAATATACAGTTGTACTAAACAAAAAAAAAAA [XGTACX_site2639],6.26
15,AAAATATACACACATATGTATATAATATTATATGTA [GTGCAC_negctrl_site496],6.86
16,TATAAAAAATGATAAAGTACTTTATACACACAAATA [XGTACX_site8486],7.02
17,CTAAAACAATAAATCACACATACATAGGATAATATA [CACACA_site4247],6.48
18,ATTTATAATCTGTATAGTACACATATATACATGGTT [XGTACX_site2714],6.46
19,ACCTCTTTGAAATATACACACTAAACATATCAACTT [CACACA_site5372],7.32

row,Sequence,gcPBM binding intensity (ln)
1,TACATAGAGTTTGTTTGTACTCATATGCGTAAATTC [XGTACX_site4810],6.49
2,AGAAAAAAAATATACACACATACGATCATACATATG [CACACA_site2171],6.63
3,TCTGTAGTTTTTTACAGTACTTTTAGGTAATACATA [XGTACX_site7417],6.08
4,AAAACACCCAAACACACACACACATATATATATATA [CACACA_site9119],9.18
5,TTCTTGTATTTTCATAGTACATATAATGTCGTGTTA [XGTACX_site7714],6.6
6,AATAAATTATTTATTGCATGTAATATGAATATTTTT [TGCATGCA_site798],6.74
7,TAATGTATGAAATAAACACACAAGTAAGTACATAAA [CACACA_site2451],6.95
8,ATATATTTTATTCCTATATATATATATATATATATA [GTGCAC_negctrl_site556],9.63
9,CATTATGTCATAAATGCACACATATACATTGTTTTG [CACACA_site8118],10.4
10,ATTATTTTTCTATGTGTGCACGTGTGGAATGTGTCT [GTGCAC_site9507],9.17
11,TTCTGAACAAAATTATATATTTATTTTTATTTTCAT [CACACA_negctrl_site422],6.35
12,TATATTACTTAAAATACACACCATGGAAAAGTTTTA [CACACA_site5443],6.51
13,TTTCTTTTTTTTTTTTTTTCTGGCTTTTTCTCTTTT [TGCATGCA_negctrl_site599],5.85
14,TTTTTATTTTTTTTATGTACACAAATGATATACATA [XGTACX_site5910],6.77
15,AGGATACACGGACACACACACATATAGATTTATATA [CACACA_site6552],6.89
16,AAAATGAATATAATGACGCACACTTAAAATTGTTAA [CACACA_site2509],6.46
17,TGTGTTAAATGTAATAGTGAATAAATAATTTTAACA [TGCATGCA_negctrl_site161],6.36
18,TTTTTTAGAAAAAGTTGTACTTTTTTTTTTTTTTTT [XGTACX_site535],5.92
19,TAAAAATGTAGACACACACACATATATATATTTAAT [CACACA_site1528],6.89

row,Sequence,gcPBM binding intensity (ln)
1,ATATATATAATATAGGTGCACTACTTATTTAAAAAA,9.91
2,TTAATAACAAAATAAACACACATATATAAATCCACA [CACACA_site1590],6.81
3,AAATAATTAGCTATTTGTACATATATACATATTTAT [XGTACX_site4652],6.37
4,ATATATTAGGGCAAATTTTCTGACATTACATCAGTC [CACACA_negctrl_site1166],6.48
5,ATATTTATATTTGTATGTACTTAAGTTTGTATGTAT [XGTACX_site3608],6.67
6,TTTTTAATTCAAAAAATAATATATTATATTTCAAAT [CACACA_negctrl_site737],6.11
7,TATTTTTCTTTTTTCTGTACTCACACAAATAGAAGG [XGTACX_site7329],6.37
8,TTTTTACGTAAACAAAATAATTATATAATATTATTT [CACACA_negctrl_site1769],6.34
9,TAAACAAATAAATAAACACACAATATATGTATATAT [CACACA_site3803],6.4
10,CGTAAATTTTTTAAAAGTACAAAAAGATACGAGAAA [XGTACX_site8722],6.46
11,ATAGGACCTATGTGCCCATGGGTACATTAAAAAAAA [CACACA_negctrl_site1465],6.1
12,AAAAAACTTATAATCACACATATGATTAAATATTAA [CACACA_site4956],6.16
13,AAAAAAAAAAAAAAAATACACACGTGAATGTATTGT [CACACA_site1320],6.69
14,AAATAACACATATATACACACATATAAATATAATAT [CACACA_site2692],6.74
15,TTTGTTTTAAATCGAAGTACACATAATTATATTTTA [XGTACX_site1541],6.33
16,AATTATTTTTTGTATGAACACACAACTTAATTATGA [CACACA_site8774],6.37
17,TTGAATGTAGTTAAATGTACATGTAATATATAAAAA [XGTACX_site1250],6.95
18,ATACAACATATATATACACACATATAATAATAATAA [CACACA_site3367],6.85
